Assay results published in the supplement of paper PMC10369915.
Some of the results follow. Cut-off read from the data, not from the text of the source: active = 3.2 or more and inactive = the rest. Most of these values are background signal.

B1: UPF3B_Y160_Y160D (peptide)
chain: DDDPEDRKFLE
B2: UBA7_Y524 (peptide)
chain: TTEHIYGDNFF
B3: UFSP2_Y285_Y290H_YF (peptide)
chain: VVQGIYGFHHH
B4: UHMK1_Y197_Y197D (peptide)
chain: IQTDGDRAPEA
B5: USH2A_Y1909 (peptide)
chain: DSILVYQGKEQ
B6: UBA5_Y372_A371T (peptide)
chain: GITVTYTIPKK
B7: UROD_Y30 (peptide)
chain: GEETDYTPVWC
B8: UQCRC2_Y207 (peptide)
chain: SEELHYFVQNH
B9: USH2A_Y3745_Y3747C (peptide)
chain: EPNSRYTCKLE
B10: UBA5_Y53_M57V (peptide)
chain: VDSNPYSRLVA
B11: UROS_Y19_Y19C (peptide)
chain: CGQDPCIRELG
B12: TYW5_Y48 (peptide)
chain: KWTVDYLSQVG
B13: TYROBP_Y91_S89L (peptide)
chain: ETELPYQELQG
B14: U2SURP_Y634_R635C (peptide)
chain: DLNATYCTIQG
B15: UQCRC1_Y219_D215H (peptide)
chain: AHLTEYLSTHY
B16: UCN3_Y95 (peptide)
chain: ARGTRYRYVSQ
B17: UCN3_Y95_R91G (peptide)
chain: AGGTRYRYVSQ
B18: UNC13D_Y56_A59T (peptide)
chain: QRALLYEDTLY
B19: UROD_Y133 (peptide)
chain: ASELGYVFQAI
B20: TYW5_Y48_S50G (peptide)
chain: KWTVDYLGQVG
B21: TXNRD2_Y70_A66S (peptide)
chain: VSVVDYVEPSP
B22: UGT1A1_Y337_R336W (peptide)
chain: TVLWWYTGTRP
B23: UBTF_Y207_E210K (peptide)
chain: PQQLWYTHKKK
B24: TYROBP_Y111 (peptide)
chain: NTQRPYYKGGG
B25: UNC13D_Y56_A59T_YF (peptide)
chain: QRALLYEDTLF
B26: UCN3_Y95_YF (peptide)
chain: ARGTRYRFVSQ
B27: UBA5_Y372 (peptide)
chain: GITVAYTIPKK
B28: UQCR10_Y44 (peptide)
chain: GADAIYDHINE
B29: UNC13B_Y243_YF (peptide)
chain: DSMQSYDLDFP
B30: UGGT2_Y1289_Y1285F_YF (peptide)
chain: EFGFRYELVQF
B31: UGGT2_Y1289_Y1285F (peptide)
chain: EFGFRYELVQY
B32: USH2A_Y3745 (peptide)
chain: EPNSRYTYKLE
B33: UBA1_Y560 (peptide)
chain: DTERIYDDDFF
B34: UBA5_Y53_R55H (peptide)
chain: VDSNPYSHLMA
B35: UHMK1_Y197 (peptide)
chain: IQTDGYRAPEA
B36: TYROBP_Y111_Y111H_YF (peptide)
chain: NTQRPHFKGGG
B37: UCN3_Y95_R91G_YF (peptide)
chain: AGGTRYRFVSQ

Biological target: SHP2 C-SH2 domain E139D
Experiment: enrichment score (SH2-bound / input frequency) (ratio); bacterial display of known human phosphotyrosine sites (pTyr-Var adds point mutants) read by sequencing; higher = stronger binding; tyrosines were phosphorylated by kinases first
Details: peptide library: pTyr-Var
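Note: displayed peptides selected on beads carrying the immobilized SH2 domain, with library peptides lacking any tyrosine serving as negative controls.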

| Binder | enrichment score |
| --- | --- |
| B1 | inactive: 0.316 |
| B2 | inactive: 0.964 |
| B3 | inactive: 2.18 |
| B4 | inactive: 0.543 |
| B5 | inactive: 0.831 |
| B6 | inactive: 1.41 |
| B7 | inactive: 0.684 |
| B8 | inactive: 0.769 |
| B9 | inactive: 1.08 |
| B10 | inactive: 0.635 |
| B11 | inactive: 0.885 |
| B12 | inactive: 1.12 |
| B13 | inactive: 0.516 |
| B14 | inactive: 0.791 |
| B15 | inactive: 1.14 |
| B16 | inactive: 0.183 |
| B17 | inactive: 0.335 |
| B18 | inactive: 1.05 |
| B19 | inactive: 0.702 |

| Binder | enrichment score |
| --- | --- |
| B20 | inactive: 0.94 |
| B21 | inactive: 0.663 |
| B22 | inactive: 1.34 |
| B23 | inactive: 0.869 |
| B24 | inactive: 0.953 |
| B25 | inactive: 0.931 |
| B26 | inactive: 0.312 |
| B27 | inactive: 1.19 |
| B28 | inactive: 0.846 |
| B29 | inactive: 0.5 |
| B30 | inactive: 0.868 |
| B31 | inactive: 0.528 |
| B32 | inactive: 0.905 |
| B33 | inactive: 0.607 |
| B34 | inactive: 0.645 |
| B35 | inactive: 0.561 |
| B36 | inactive: 1.19 |
| B37 | inactive: 0.556 |

Biological target: SHP2 C-SH2 domain wild-type
Experiment: as above
Details: peptide library: pTyr-Var

| Binder | enrichment score |
| --- | --- |
| B1 | inactive: 0.407 |
| B2 | inactive: 0.849 |
| B3 | inactive: 2.07 |
| B4 | inactive: 0.482 |
| B5 | inactive: 0.662 |
| B6 | inactive: 2.09 |
| B7 | inactive: 0.512 |
| B8 | inactive: 0.674 |
| B9 | inactive: 1.01 |
| B10 | inactive: 1.39 |
| B11 | inactive: 0.759 |
| B12 | inactive: 1.06 |
| B13 | inactive: 0.557 |
| B14 | inactive: 0.71 |
| B15 | inactive: 0.995 |
| B16 | inactive: 0.224 |
| B17 | inactive: 0.314 |
| B18 | inactive: 1.12 |
| B19 | inactive: 0.873 |

| Binder | enrichment score |
| --- | --- |
| B20 | inactive: 1.09 |
| B21 | inactive: 0.679 |
| B22 | inactive: 1.22 |
| B23 | inactive: 0.662 |
| B24 | inactive: 1.16 |
| B25 | inactive: 0.996 |
| B26 | inactive: 0.255 |
| B27 | inactive: 1.06 |
| B28 | inactive: 0.601 |
| B29 | inactive: 0.443 |
| B30 | inactive: 0.773 |
| B31 | inactive: 0.517 |
| B32 | inactive: 0.653 |
| B33 | inactive: 0.581 |
| B34 | inactive: 0.743 |
| B35 | inactive: 0.518 |
| B36 | inactive: 1.45 |
| B37 | inactive: 0.564 |

Biological target: SHP2 N-SH2 domain L43F
Experiment: as above
Details: peptide library: pTyr-Var

| Binder | enrichment score |
| --- | --- |
| B1 | inactive: 0.363 |
| B2 | inactive: 0.816 |
| B3 | inactive: 2.38 |
| B4 | inactive: 0.444 |
| B5 | inactive: 0.702 |
| B6 | inactive: 2.09 |
| B7 | inactive: 0.49 |
| B8 | inactive: 0.919 |
| B9 | inactive: 0.601 |
| B10 | inactive: 0.574 |
| B11 | inactive: 0.668 |
| B12 | inactive: 1.07 |
| B13 | inactive: 0.588 |
| B14 | inactive: 0.698 |
| B15 | inactive: 1.06 |
| B16 | inactive: 0.317 |
| B17 | inactive: 0.335 |
| B18 | inactive: 0.907 |
| B19 | inactive: 0.828 |

| Binder | enrichment score |
| --- | --- |
| B20 | inactive: 0.93 |
| B21 | inactive: 0.735 |
| B22 | inactive: 1.05 |
| B23 | inactive: 0.678 |
| B24 | inactive: 0.84 |
| B25 | inactive: 1.54 |
| B26 | inactive: 0.24 |
| B27 | inactive: 0.773 |
| B28 | inactive: 0.809 |
| B29 | inactive: 0.556 |
| B30 | inactive: 0.805 |
| B31 | inactive: 0.426 |
| B32 | inactive: 0.775 |
| B33 | inactive: 0.761 |
| B34 | inactive: 0.598 |
| B35 | inactive: 0.365 |
| B36 | inactive: 1.51 |
| B37 | inactive: 0.374 |

Biological target: SHP2 N-SH2 domain T42A
Experiment: as above
Details: peptide library: pTyr-Var

| Binder | enrichment score |
| --- | --- |
| B1 | inactive: 0.389 |
| B2 | inactive: 0.69 |
| B3 | inactive: 1.98 |
| B4 | inactive: 0.306 |
| B5 | inactive: 0.542 |
| B6 | active: 4.1 |
| B7 | inactive: 0.56 |
| B8 | inactive: 0.743 |
| B9 | inactive: 0.595 |
| B10 | inactive: 0.513 |
| B11 | inactive: 0.7 |
| B12 | inactive: 1.17 |
| B13 | inactive: 0.601 |
| B14 | inactive: 0.621 |
| B15 | inactive: 0.874 |
| B16 | inactive: 0.204 |
| B17 | inactive: 0.307 |
| B18 | inactive: 0.771 |
| B19 | inactive: 0.65 |

| Binder | enrichment score |
| --- | --- |
| B20 | inactive: 1.76 |
| B21 | inactive: 0.533 |
| B22 | inactive: 1.24 |
| B23 | inactive: 0.531 |
| B24 | inactive: 0.805 |
| B25 | inactive: 1.81 |
| B26 | inactive: 0.238 |
| B27 | inactive: 1.62 |
| B28 | inactive: 0.79 |
| B29 | inactive: 0.409 |
| B30 | inactive: 1.08 |
| B31 | inactive: 0.76 |
| B32 | inactive: 0.711 |
| B33 | inactive: 0.573 |
| B34 | inactive: 0.484 |
| B35 | inactive: 0.602 |
| B36 | inactive: 0.967 |
| B37 | inactive: 0.634 |

Biological target: SHP2 N-SH2 domain T52S
Experiment: as above
Details: peptide library: pTyr-Var

| Binder | enrichment score |
| --- | --- |
| B1 | inactive: 0.41 |
| B2 | inactive: 0.609 |
| B3 | inactive: 2.29 |
| B4 | inactive: 0.421 |
| B5 | inactive: 0.537 |
| B6 | inactive: 1.92 |
| B7 | inactive: 0.426 |
| B8 | inactive: 0.932 |
| B9 | inactive: 0.738 |
| B10 | inactive: 0.607 |
| B11 | inactive: 0.911 |
| B12 | inactive: 1.03 |
| B13 | inactive: 0.629 |
| B14 | inactive: 0.622 |
| B15 | inactive: 0.95 |
| B16 | inactive: 0.166 |
| B17 | inactive: 0.418 |
| B18 | inactive: 0.874 |
| B19 | inactive: 0.906 |

| Binder | enrichment score |
| --- | --- |
| B20 | inactive: 0.974 |
| B21 | inactive: 0.828 |
| B22 | inactive: 1.33 |
| B23 | inactive: 0.568 |
| B24 | inactive: 0.724 |
| B25 | inactive: 1.09 |
| B26 | inactive: 0.268 |
| B27 | inactive: 0.981 |
| B28 | inactive: 0.678 |
| B29 | inactive: 0.625 |
| B30 | inactive: 0.753 |
| B31 | inactive: 0.624 |
| B32 | inactive: 0.849 |
| B33 | inactive: 0.543 |
| B34 | inactive: 0.642 |
| B35 | inactive: 0.694 |
| B36 | inactive: 1.22 |
| B37 | inactive: 0.408 |

Biological target: SHP2 N-SH2 domain wild-type
Experiment: as above
Details: peptide library: pTyr-Var

| Binder | enrichment score |
| --- | --- |
| B1 | inactive: 0.343 |
| B2 | inactive: 0.913 |
| B3 | inactive: 2.04 |
| B4 | inactive: 0.564 |
| B5 | inactive: 0.807 |
| B6 | inactive: 1.1 |
| B7 | inactive: 0.755 |
| B8 | inactive: 0.854 |
| B9 | inactive: 0.64 |
| B10 | inactive: 0.702 |
| B11 | inactive: 0.685 |
| B12 | inactive: 1.05 |
| B13 | inactive: 0.768 |
| B14 | inactive: 0.732 |
| B15 | inactive: 1.04 |
| B16 | inactive: 0.174 |
| B17 | inactive: 0.466 |
| B18 | inactive: 1.03 |
| B19 | inactive: 0.904 |

| Binder | enrichment score |
| --- | --- |
| B20 | inactive: 1.21 |
| B21 | inactive: 0.694 |
| B22 | inactive: 1.35 |
| B23 | inactive: 0.498 |
| B24 | inactive: 0.889 |
| B25 | inactive: 1.3 |
| B26 | inactive: 0.267 |
| B27 | inactive: 0.96 |
| B28 | inactive: 0.633 |
| B29 | inactive: 0.535 |
| B30 | inactive: 0.85 |
| B31 | inactive: 0.453 |
| B32 | inactive: 0.843 |
| B33 | inactive: 0.578 |
| B34 | inactive: 0.578 |
| B35 | inactive: 0.622 |
| B36 | inactive: 1.39 |
| B37 | inactive: 0.7 |
